Measured values as given in the supplement of paper PMC7266297.
Counter-ions that a name gives are not always drawn. Some of the results follow. Many values rest on one well or one pass, so single values are uncertain.

What was measured:
KB-3-1 = test: growth inhibition relative to DMSO control (SRB); cervical cancer cells: KB-3-1 is the parent and KB-V1 overexpresses MDR1; SRB is the sulforhodamine B stain; higher = more growth inhibition; conditions: 1 µM; 72 h
KB-V1 = test: as above; conditions: 1 µM; 72 h
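Further: Read-out is SRB optical density at 490 nm, with the control being wells given 0.5% DMSO vehicle, and compound added one day after cells were plated.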

Compound | growth inhibition (KB-3-1) [%] | growth inhibition (KB-V1) [%]
C=C1C[C@@H]2[C@H](CC[C@]3(C)C(=O)CC[C@@H]23)[C@@]2(C)C=CC(=O)C=C12 [Exemestane] | 34.2 | 43.2
N[C@@H]1C[C@H]1c1ccccc1 [Tranylcypromine (2-PCPA) HCl] | 14.1 | 7.14
C[C@H]1CCC/C=C/[C@@H]2C[C@H](O)C[C@H]2[C@H](O)/C=C/C(=O)O1 [Brefeldin A] | 100 | 100
CCN(C)C(=O)Oc1cccc([C@H](C)N(C)C)c1 [Rivastigmine Tartrate] | 21.1 | 21.1
C=CCN1CC[C@]23c4c5ccc(O)c4O[C@H]2C(=O)CC[C@@]3(O)[C@H]1C5 [Naloxone HCl] | < 0 | 8.05
CC(C)(C)c1cc(C=C(C#N)C#N)cc(C(C)(C)C)c1O [Tyrphostin 9] | 91.5 | 89.4
Cn1cc(C2=C(c3cn(C4CCN(Cc5ccccn5)CC4)c4ccccc34)C(=O)NC2=O)c2ccccc21 | 42.1 | 32.6
CC(=O)O[C@H]1C[C@@H]2CC[C@@H]3[C@H](CC[C@@]4(C)[C@H]3C[C@H]([N+]3(C)CCCCC3)[C@@H]4OC(C)=O)[C@@]2(C)C[C@@H]1[N+]1(C)CCCCC1 [Pancuronium dibromide] | 26 | 5.32
CN1[C@@H]2CC(O)C[C@H]1[C@@H]1O[C@@H]12 (stereo not given in full) [Scopine] | 11.8 | 17.1
CC[C@@]1(O)C(=O)OCc2c1cc1n(c2=O)Cc2cc3ccccc3nc2-1 [Camptothecin] | 79.7 | 97.5
C#C[C@]1(O)C=C[C@H]2[C@@H]3CCC4=CC(=O)CC[C@@H]4[C@H]3CC[C@@]21CC [Gestodene] | 9.33 | 31.4
O=C(O[C@H]1C[N+]2(CCCOc3ccccc3)CCC1CC2)C(O)(c1cccs1)c1cccs1 [Aclidinium Bromide] | < 0 | 12
CN1c2ccccc2C(NCCCCCCC(=O)O)c2ccc(Cl)cc2S1(=O)=O (stereo not given) [Tianeptine sodium] | 10.2 | 34.4
CCC(COC(=O)c1cc(OC)c(OC)c(OC)c1)(c1ccccc1)N(C)C (stereo not given) [Trimebutine] | 22.3 | 34
CCNC(=O)C[C@@H]1N=C(c2ccc(Cl)cc2)c2cc(OC)ccc2-n2c(C)nnc21 | 49.5 | 32.4
CN1CCc2cc3c(cc2C1C1OC(=O)c2c1ccc1c2OCO1)OCO3 (single isomer, unassigned; (+)) [(+)-Bicuculline] | 5.93 | 14.7
CN1CCC(c2c[nH]c3ccc(O)cc23)CC1 | 23.6 | 36.2
Cc1cccc(C(C)c2c[nH]cn2)c1C (stereo not given) [Medetomidine HCl] | < 0 | 4.16

Compound | growth inhibition (KB-3-1) [%] | growth inhibition (KB-V1) [%]
O=c1[nH]c2ccc(Cl)cc2c(N[C@@H]2CN3CCC2CC3)c1-c1nc2ccccc2[nH]1 | 100 | 82.3
CCN1CCN(C(=O)Cc2ccc(Nc3ncc(F)c(Nc4ccc(C(=O)Nc5ccccc5Cl)cc4)n3)cc2)CC1 [Aurora A Inhibitor I] | 98 | 94.9
C[C@H]1CNCCc2ccc(Cl)cc21 [Lorcaserin HCl] | 4.24 | 5.62
C[C@](O)(COc1ccc(C#N)cc1)C(=O)Nc1ccc(C#N)c(C(F)(F)F)c1 | 31 | 36.7
CCN(CC)C(=O)c1ccc(C2=CC3(CCNCC3)Oc3cccc(O)c32)cc1 | 30 | 27
O=C1CC[C@@]2(O)[C@H]3Cc4ccc(O)c5c4[C@@]2(CCN3CC2CC2)[C@H]1O5 [Naltrexone HCl] | < 0 | 21.5
CC(C)(C)c1cc(C=C(C#N)C#N)cc(Br)c1O | 32.7 | 40.4
CN1[C@@H]2CC[C@H]1C[C@@H](OC(=O)[C@H](CO)c1ccccc1)C2 [Hyoscyamine] | < 0 | 8.05
CNCC(O)c1ccc(O)cc1 (stereo not given) [Synephrine] | < 0 | 32.7
CCCN1C[C@H](CSC)C[C@@H]2c3cccc4[nH]cc(c34)C[C@H]21 [Pergolide mesylate] | < 0 | 16.9
Cc1cccc([C@H](C)c2c[nH]cn2)c1C [Dexmedetomidine] | < 0 | 11
CC(=O)Nc1ccc(OC[C@](C)(O)C(=O)Nc2ccc([N+](=O)[O-])c(C(F)(F)F)c2)cc1 [Andarine] | 31.6 | 29.1
C[N+](C)(C)CCCCCCCCCC[N+](C)(C)C [Decamethonium Bromide] | 10.3 | 8.05
CN1CCCCC1Cn1cc(C(=O)c2cc([N+](=O)[O-])ccc2I)c2ccccc21 (stereo not given) | 23.8 | 20.7
Fc1cc(F)c2c(c1)[C@H]1C=CC[C@H]1C(c1cccnc1)N2 (stereo not given in full) [Golgicide A] | < 0 | < 0
CC[C@@H]1/C=C/C=C/C[C@H](C)[C@H](O)[C@](C)(O)C(=O)[C@H](C)[C@@H](O)[C@H](C)C(=O)[C@H](C)[C@@H](O)[C@H](C)/C=C/C(=O)O[C@H]2[C@@H](C)[C@@H](CC1)O[C@@]1(CC[C@@H](C)[C@@H](C[C@H](C)O)O1)[C@@H]2C [Oligomycin A] | 87.8 | 70.5
C[C@]12CC[C@H](O)CC1=CC[C@@H]1[C@@H]2CC[C@]2(C)C(=O)CC[C@@H]12 [Dehydroepiandrosterone (DHEA)] | 28.7 | 7.13
